PubChem BioAssay AID1240 (Sanford-Burnham Center for Chemical Genomics, 2008)
The campaign covered roughly 50,000 compounds. About 800 (1.6%) showed an effect of 50% or more. This is one part of the list.

The compounds below were run against Bcl-2-like protein 10 (Homo sapiens) (UniProt Q9HD36) (assay: TR3 peptide-Bcl-B binding displacers, biochemical primary FP assay, phenotype converters (AID 1240;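 note: 0% = Bcl-B with tracer peptide and DMSO and 100% = tracer peptide lacking Bcl-B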)). Details: GST-Bcl-B / FITC-TR3 peptide fluorescence polarization; stronger effect = higher value; compound at 3.75 mg/L.
Sequence of UniProt Q9HD36 (Q9HD36 whole entry, looked up): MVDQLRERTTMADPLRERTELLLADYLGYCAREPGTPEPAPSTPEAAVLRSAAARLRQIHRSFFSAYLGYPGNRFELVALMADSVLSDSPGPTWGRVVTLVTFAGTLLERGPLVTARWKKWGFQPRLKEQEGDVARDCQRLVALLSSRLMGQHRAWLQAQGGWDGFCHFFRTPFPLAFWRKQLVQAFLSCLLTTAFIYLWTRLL
With `CC(=O)N1Cc2ccccc2C(C)CC12CCCC2` (stereo not drawn) the displacement was -0.9%. In the case of `Fc1ccccc1NCn1cnc2ccccc21`, the displacement is reported as 1.6%. Work on `O=C(N/N=C/c1cccc(Br)c1)C(Oc1ccccc1)Oc1ccccc1` yielded a displacement of -0.7%. `COc1cc(/C=C2/C(=O)NC(=O)N(c3ccc(Cl)cc3)C2=O)cc([N+](=O)[O-])c1O` showed a displacement of -8.8%. With `CN1CCN(CC(=O)n2c3c(c4ccccc42)CCCC3)CC1` the displacement was 4.6%. Compound `O=C(NNC(=O)C(c1ccccc1)c1ccccc1)c1ccccc1Cl` has a displacement of -10.1%. For `O=C(Nc1cc([N+](=O)[O-])ccc1C(=O)N1CCC(Cc2ccccc2)CC1)c1cccs1`, the displacement was -7.8%. `O=C(Nc1ccc(I)cc1Cl)c1ccccc1[N+](=O)[O-]` showed a displacement of -2%. Work on `O=C(c1ccc(I)cc1)N1CCN(c2ccccn2)CC1` yielded a displacement of 7.5%. `C/C(=N\NC(=O)c1cc(-c2ccccc2)n[nH]1)c1ccccc1` showed a displacement of -11.4%. For `C=CCN(c1ccccc1C(=O)O)S(=O)(=O)/C=C/c1ccccc1`, the displacement was -7%. `COc1ccc2c(c1)CC/C(=C\c1cccc(F)c1)C2=O` gave a displacement of 1.8%. Work on `Brc1ccccc1OCCCCCCN1CCCCC1` yielded a displacement of 22.7%. `O=C(Nc1cccc(O)c1)c1ccc(NC(=O)C(c2ccccc2)c2ccccc2)cc1` showed a displacement of -10.8%. `Cc1ccc(C(=O)N2CCN(c3c(Cl)cccc3[N+](=O)[O-])CC2)cc1` gave a displacement of 9.1%. `Nc1nonc1-c1ncc(-c2ccc(Br)cc2)nn1` showed a displacement of 30.1%. `Cc1ccc(/C(N)=N/OC(=O)c2ccccc2I)cc1` gave a displacement of 0%. For `COc1ccc(N2CCN(C(=O)c3cc(F)c(F)cc3Cl)CC2)c([N+](=O)[O-])c1`, the displacement was -3.1%. `CCOc1cc(/C=N/n2nnnc2N)ccc1O` showed a displacement of 5%. `COc1cc(/C=N/N=C2\NC(=O)C(CC(=O)O)S2)cc(OC)c1OC` (stereo not drawn) showed a displacement of -10.3%. In the case of `O=C(Nc1ccc(S(=O)(=O)Nc2ncccn2)cc1)c1cncc(Br)c1`, the displacement is reported as 38.4%. Compound `CC(C)Oc1ccccc1NC(=O)CSCC(=O)Nc1ccccc1` has a displacement of 15.6%. `COc1ccc(S(=O)(=O)N2CCN(C(=O)CC(C)C)CC2)cc1` gave a displacement of 13.2%. Compound `CCc1ccc(C(=O)N2CCN(c3ccc([N+](=O)[O-])cc3)CC2)cc1` has a displacement of -5.5%. With `C/C(=N\NC(=O)COc1ccccc1[N+](=O)[O-])c1ccc(Cl)cc1` the displacement was 4.4%. In the case of `CC12C=CC(O1)C1C(=O)N(c3ccc(Cl)cc3)C(=O)C12` (stereo not drawn), the displacement is reported as 9.6%. `O=C(c1cc(F)c(F)cc1Br)N1CCOCC1` showed a displacement of -4.8%. With `CC(=O)c1ccc(NC(=O)c2cc(Cl)ccc2Cl)cc1` the displacement was 4.5%. Work on `COc1ccc(CC(=O)N/N=C(\C)CC(=O)Nc2ccccc2C)cc1OC` yielded a displacement of -21.3%. For `COC(=O)c1cc(Cl)c(C(=O)OC)c2c(C(=O)OC)cc(Cl)c(C(=O)OC)c12`, the displacement was 4.2%. Work on `O=C1CS/C(=N/N=C/c2ccccc2OCc2ccc(Cl)cc2Cl)N1` yielded a displacement of 22.1%. In the case of `O=C(/C=C/c1ccccc1[N+](=O)[O-])c1ccc(Cl)cc1`, the displacement is reported as -7.8%. For `CC(=O)C1=C(Nc2ccc(Br)cc2)CC(C)(O)C(C(C)=O)C1c1ccc(C)cc1` (stereo not drawn), the displacement was -4.9%. `COCCOC(=O)c1c(C)oc2ccc(OC(=O)c3ccccc3OC)cc12` was tested, and the displacement was 15.9%. With `C#Cc1cccc(NC(=O)c2cccc(OC)c2)c1` the displacement was -17.4%. With `CCOC(=O)c1c(C)[nH]c(/C=C2\C(=O)C=Cc3ccccc32)c1O` the displacement was 6.4%. With `CC(C)CC(C(=O)O)n1c(O)c(C2=c3ccccc3=NC2=O)sc1=S` (stereo not drawn) the displacement was 2.1%. `O=C(Cc1ccc(Cl)cc1)NC(c1ccccc1)c1ccccc1` showed a displacement of -4.3%. In the case of `Cc1cc(NS(=O)(=O)c2ccc(NC(=O)C(C)Oc3cccc(Cl)c3)cc2)nc(C)n1` (stereo not drawn), the displacement is reported as 14.1%. Work on `CCOc1ccc(S(=O)(=O)N(CC(=O)Nc2ccc(OC)c(OC)c2)c2ccc(C)cc2)cc1` yielded a displacement of -2.3%. In the case of `O=C1c2ccccc2C(=O)N1c1ncc(Cc2cc(Cl)ccc2Cl)s1`, the displacement is reported as 5.3%. In the case of `CC1(C)Cc2nc3nc(NN)n(-c4ccccc4)c(=O)c3cc2CO1`, the displacement is reported as 3.8%. `CC(=O)Oc1cccc(N2C(=O)c3ccc(C(=O)c4ccc5c(c4)C(=O)N(c4cccc(OC(C)=O)c4)C5=O)cc3C2=O)c1` showed a displacement of 1.8%. `CN(C)c1ccc(/C=C(\C#N)c2nc(-c3ccc4c(c3)OCO4)cs2)cc1` was tested, and the displacement was -3%. `Cc1ccc(Nc2ccc([N+](=O)[O-])c3nonc23)cc1` gave a displacement of -2.1%. In the case of `COC(=O)c1ccccc1NC(=O)C1CC(=O)N(c2ccc(C)cc2)C1` (stereo not drawn), the displacement is reported as 1.9%. `COc1ccc(/C=C2\C(=O)N(C)C(=S)N(c3ccc(C)cc3)C2=O)cc1OC` showed a displacement of 12.3%. Work on `O=C(c1ccc(F)c(F)c1)N1CCN(c2cc(N3CCCC3)c(F)cc2[N+](=O)[O-])CC1` yielded a displacement of -2.6%. With `CNc1c(Cl)c(Cl)c(Cl)c2c1C(=O)c1ccccc1C2=O` the displacement was 11.2%. With `Cc1ccc(NC(=O)C(=O)NCc2ccco2)c(C)c1` the displacement was 7.5%. Work on `CCN(CC)c1ccc(/C=N/N2C(=O)c3ccccc3C2=O)cc1` yielded a displacement of -1.2%. With `NNc1nnc2c(n1)[nH]c1ccc(Br)cc12` the displacement was -2.2%. `CCc1ccc(N2CC(C(=O)Nc3ccc(Cl)c(Cl)c3)CC2=O)cc1` (stereo not drawn) was tested, and the displacement was 8.5%. Compound `Cc1occc1C(=O)O/N=C(\N)c1cccnc1` has a displacement of 12.7%. `C#CCOc1c(Br)cc(C2C(C(=O)OC)=C(C)NC3=C2C(=O)c2ccccc23)cc1OC` (stereo not drawn) was tested, and the displacement was 12.1%. `COc1cc(/C=C/c2cc(C(F)(F)F)[nH]c(=O)n2)ccc1OCc1ccc(Cl)cc1Cl` showed a displacement of 41.6%. Work on `C/C(=N\Nc1cc(-c2ccccc2)nc(C)n1)c1ccccc1` yielded a displacement of 3.3%. `COc1ccccc1NC(=O)c1ccccc1-c1ccccc1C(=O)O` was tested, and the displacement was 3.1%. `Cc1ccccc1NC(=O)C(=O)NCc1ccc2c(c1)OCO2` gave a displacement of 13.3%. `CCSc1nc(N)c2c3c(sc2n1)COC(C)(CC)C3` (stereo not drawn) showed a displacement of 0%. Compound `COc1ccc(N(CC(=O)Nc2cccc(C(F)(F)F)c2)S(C)(=O)=O)cc1` has a displacement of -0.8%. `Nc1nonc1C(=O)NCCNC(=O)c1cccc(Br)c1` showed a displacement of 12.6%. For `Cc1ccc(N(CC(=O)NCc2ccco2)S(=O)(=O)c2ccc(F)cc2)cc1`, the displacement was -11.5%. `O=c1/c(=C/c2ccccc2OS(=O)(=O)c2ccccc2)sc2nc3ccccc3n12` was tested, and the displacement was 18.6%. Work on `Cc1c(NC(=O)CN(c2ccc(F)cc2)S(=O)(=O)c2ccccc2)c(=O)n(-c2ccccc2)n1C` yielded a displacement of -1.5%. `COc1ccc(-c2nc3cc(NC(=S)NC(=O)c4ccccc4Cl)ccc3o2)cc1Cl` showed a displacement of -22.1%. `Cc1ccc2oc(-c3ccccc3N)nc2c1` gave a displacement of 3.4%. Work on `O=C1CCCC2=C1C(c1ccc([N+](=O)[O-])cc1)C1=C(CCCC1=O)O2` yielded a displacement of -2%.
